Measurements from article PMC8548262.
These are yes or no findings as the source states them, for the method shown. In cells and extracts the contact can be indirect. Some results given as binding are weak or reduced against the parent protein; the word gives no strength. For some assays here: Tags and fused reporters may be left off the sequences shown.

Sequences of proteins named here, by UniProt entry; tags and fusion partners are left off.
UniProt O15550: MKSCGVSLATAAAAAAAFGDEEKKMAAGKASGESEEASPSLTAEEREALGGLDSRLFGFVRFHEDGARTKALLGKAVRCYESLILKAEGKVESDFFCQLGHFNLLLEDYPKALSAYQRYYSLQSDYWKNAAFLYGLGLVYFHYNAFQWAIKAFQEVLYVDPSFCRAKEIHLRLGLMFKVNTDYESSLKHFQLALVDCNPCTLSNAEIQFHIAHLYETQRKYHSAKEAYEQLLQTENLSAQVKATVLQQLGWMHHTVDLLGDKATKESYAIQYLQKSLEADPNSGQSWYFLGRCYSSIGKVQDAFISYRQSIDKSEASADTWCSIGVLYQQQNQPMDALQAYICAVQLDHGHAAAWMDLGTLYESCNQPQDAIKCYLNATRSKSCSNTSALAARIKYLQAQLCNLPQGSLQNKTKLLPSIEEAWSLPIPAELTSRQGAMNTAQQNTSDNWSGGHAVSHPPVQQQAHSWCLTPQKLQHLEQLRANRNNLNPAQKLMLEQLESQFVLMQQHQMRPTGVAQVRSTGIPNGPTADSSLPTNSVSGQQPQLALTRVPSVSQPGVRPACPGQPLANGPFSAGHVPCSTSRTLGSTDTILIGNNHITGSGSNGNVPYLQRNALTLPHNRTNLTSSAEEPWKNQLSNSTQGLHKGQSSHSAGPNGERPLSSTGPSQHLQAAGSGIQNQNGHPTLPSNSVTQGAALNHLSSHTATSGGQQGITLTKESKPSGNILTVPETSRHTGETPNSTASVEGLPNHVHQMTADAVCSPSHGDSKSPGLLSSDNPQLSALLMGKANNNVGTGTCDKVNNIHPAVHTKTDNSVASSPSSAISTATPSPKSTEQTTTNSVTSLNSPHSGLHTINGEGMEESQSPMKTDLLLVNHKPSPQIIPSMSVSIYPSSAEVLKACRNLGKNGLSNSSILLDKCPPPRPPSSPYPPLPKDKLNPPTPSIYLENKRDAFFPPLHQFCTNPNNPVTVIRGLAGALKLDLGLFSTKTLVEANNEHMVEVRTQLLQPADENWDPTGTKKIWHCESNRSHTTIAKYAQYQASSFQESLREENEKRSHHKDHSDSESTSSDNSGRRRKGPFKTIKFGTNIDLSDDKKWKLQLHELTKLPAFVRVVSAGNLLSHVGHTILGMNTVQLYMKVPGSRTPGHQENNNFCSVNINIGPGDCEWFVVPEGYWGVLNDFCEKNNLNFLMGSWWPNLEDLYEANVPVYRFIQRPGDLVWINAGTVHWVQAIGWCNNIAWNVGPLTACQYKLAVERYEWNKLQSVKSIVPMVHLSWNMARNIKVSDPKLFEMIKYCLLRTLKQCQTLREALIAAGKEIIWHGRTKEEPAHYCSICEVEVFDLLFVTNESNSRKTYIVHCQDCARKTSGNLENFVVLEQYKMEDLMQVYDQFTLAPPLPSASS
UniProt Q86XN7: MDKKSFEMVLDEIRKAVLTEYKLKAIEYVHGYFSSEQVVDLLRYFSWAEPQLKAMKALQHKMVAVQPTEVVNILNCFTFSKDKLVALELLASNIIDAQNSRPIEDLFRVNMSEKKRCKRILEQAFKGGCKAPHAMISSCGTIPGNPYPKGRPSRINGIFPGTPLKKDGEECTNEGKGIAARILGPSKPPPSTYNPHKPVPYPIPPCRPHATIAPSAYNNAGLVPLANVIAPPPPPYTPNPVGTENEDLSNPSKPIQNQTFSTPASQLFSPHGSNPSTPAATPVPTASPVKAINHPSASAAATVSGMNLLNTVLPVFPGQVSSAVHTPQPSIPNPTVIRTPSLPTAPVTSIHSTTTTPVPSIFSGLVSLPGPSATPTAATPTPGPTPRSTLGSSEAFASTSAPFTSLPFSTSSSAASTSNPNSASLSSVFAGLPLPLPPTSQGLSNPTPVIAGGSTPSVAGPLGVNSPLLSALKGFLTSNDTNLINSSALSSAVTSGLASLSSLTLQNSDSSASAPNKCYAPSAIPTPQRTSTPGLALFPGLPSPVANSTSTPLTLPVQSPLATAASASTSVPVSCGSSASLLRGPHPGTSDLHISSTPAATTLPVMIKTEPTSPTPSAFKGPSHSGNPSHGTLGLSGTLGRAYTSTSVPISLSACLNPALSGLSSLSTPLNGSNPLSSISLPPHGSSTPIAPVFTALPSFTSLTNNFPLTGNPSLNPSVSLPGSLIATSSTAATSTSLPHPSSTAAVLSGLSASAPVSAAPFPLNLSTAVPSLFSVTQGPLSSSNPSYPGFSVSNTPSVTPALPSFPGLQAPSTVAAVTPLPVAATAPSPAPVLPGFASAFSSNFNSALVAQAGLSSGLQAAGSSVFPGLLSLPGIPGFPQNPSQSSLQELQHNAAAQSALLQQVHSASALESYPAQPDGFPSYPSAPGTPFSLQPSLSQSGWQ
UniProt Q15291: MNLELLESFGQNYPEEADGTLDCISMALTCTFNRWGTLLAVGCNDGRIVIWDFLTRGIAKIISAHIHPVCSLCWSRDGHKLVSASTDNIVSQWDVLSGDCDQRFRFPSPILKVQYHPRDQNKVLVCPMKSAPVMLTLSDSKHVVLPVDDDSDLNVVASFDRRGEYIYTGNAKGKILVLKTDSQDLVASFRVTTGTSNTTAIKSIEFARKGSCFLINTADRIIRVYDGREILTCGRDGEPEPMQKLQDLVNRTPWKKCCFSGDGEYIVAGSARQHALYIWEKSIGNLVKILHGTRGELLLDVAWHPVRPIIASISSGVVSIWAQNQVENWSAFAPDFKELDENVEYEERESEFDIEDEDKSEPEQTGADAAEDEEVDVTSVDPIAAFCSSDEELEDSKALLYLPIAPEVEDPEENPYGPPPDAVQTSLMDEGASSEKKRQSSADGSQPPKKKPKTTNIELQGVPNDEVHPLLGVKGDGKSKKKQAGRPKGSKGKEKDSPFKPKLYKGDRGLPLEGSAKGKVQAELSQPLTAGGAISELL

T1: FLAG-mTET2-N500 (mouse) (UniProt Q4JK59)
T1 sequence: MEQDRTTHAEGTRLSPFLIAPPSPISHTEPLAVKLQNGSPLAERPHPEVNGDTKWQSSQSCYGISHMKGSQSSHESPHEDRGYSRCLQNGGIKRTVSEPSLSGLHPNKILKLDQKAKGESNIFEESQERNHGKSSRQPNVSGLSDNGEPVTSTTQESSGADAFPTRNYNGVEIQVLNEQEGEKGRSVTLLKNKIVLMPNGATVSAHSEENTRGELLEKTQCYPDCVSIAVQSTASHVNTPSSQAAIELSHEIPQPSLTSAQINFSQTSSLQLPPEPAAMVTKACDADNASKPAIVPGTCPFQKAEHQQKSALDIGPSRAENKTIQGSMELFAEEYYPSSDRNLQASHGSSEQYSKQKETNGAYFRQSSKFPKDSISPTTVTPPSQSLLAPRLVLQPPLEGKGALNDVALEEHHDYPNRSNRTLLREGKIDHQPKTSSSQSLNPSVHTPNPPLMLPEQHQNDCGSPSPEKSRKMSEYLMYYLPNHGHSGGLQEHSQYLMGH

T2: FLAG-mTET2-N1041 (mouse) (UniProt Q4JK59)
T2 sequence: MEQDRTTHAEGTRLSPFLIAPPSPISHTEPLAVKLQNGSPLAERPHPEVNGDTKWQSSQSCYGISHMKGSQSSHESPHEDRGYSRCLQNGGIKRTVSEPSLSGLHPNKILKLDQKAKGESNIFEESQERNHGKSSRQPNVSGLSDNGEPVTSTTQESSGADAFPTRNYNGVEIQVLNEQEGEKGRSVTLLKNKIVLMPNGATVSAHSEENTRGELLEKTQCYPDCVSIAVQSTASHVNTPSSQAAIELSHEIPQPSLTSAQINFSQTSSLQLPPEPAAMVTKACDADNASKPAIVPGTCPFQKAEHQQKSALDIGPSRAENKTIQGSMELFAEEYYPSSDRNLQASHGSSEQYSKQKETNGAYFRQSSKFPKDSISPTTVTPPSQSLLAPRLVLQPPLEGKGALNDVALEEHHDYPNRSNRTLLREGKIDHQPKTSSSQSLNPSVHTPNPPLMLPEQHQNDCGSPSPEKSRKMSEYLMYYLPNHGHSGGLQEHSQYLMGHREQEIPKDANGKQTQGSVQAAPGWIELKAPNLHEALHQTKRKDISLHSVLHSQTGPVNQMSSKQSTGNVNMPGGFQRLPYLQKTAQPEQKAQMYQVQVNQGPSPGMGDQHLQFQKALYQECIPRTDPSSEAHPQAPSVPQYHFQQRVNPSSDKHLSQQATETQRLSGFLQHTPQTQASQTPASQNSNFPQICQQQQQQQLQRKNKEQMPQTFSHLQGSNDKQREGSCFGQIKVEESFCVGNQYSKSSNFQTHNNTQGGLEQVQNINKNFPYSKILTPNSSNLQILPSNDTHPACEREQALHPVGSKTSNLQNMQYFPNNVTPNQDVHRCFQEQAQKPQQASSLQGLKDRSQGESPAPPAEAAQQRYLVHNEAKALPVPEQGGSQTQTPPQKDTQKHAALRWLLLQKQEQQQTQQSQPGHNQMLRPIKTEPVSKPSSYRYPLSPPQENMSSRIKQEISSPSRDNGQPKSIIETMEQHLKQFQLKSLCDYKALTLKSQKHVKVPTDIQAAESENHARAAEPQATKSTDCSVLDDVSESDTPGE

B1: OGT (enzyme, UniProt O15294 1-1046)
chain: MASSVGNVADSTEPTKRMLSFQGLAELAHREYQAGDFEAAERHCMQLWRQEPDNTGVLLLLSSIHFQCRRLDRSAHFSTLAIKQNPLLAEAYSNLGNVYKERGQLQEAIEHYRHALRLKPDFIDGYINLAAALVAAGDMEGAVQAYVSALQYNPDLYCVRSDLGNLLKALGRLEEAKACYLKAIETQPNFAVAWSNLGCVFNAQGEIWLAIHHFEKAVTLDPNFLDAYINLGNVLKEARIFDRAVAAYLRALSLSPNHAVVHGNLACVYYEQGLIDLAIDTYRRAIELQPHFPDAYCNLANALKEKGSVAEAEDCYNTALRLCPTHADSLNNLANIKREQGNIEEAVRLYRKALEVFPEFAAAHSNLASVLQQQGKLQEALMHYKEAIRISPTFADAYSNMGNTLKEMQDVQGALQCYTRAIQINPAFADAHSNLASIHKDSGNIPEAIASYRTALKLKPDFPDAYCNLAHCLQIVCDWTDYDERMKKLVSIVADQLEKNRLPSVHPHHSMLYPLSHGFRKAIAERHGNLCLDKINVLHKPPYEHPKDLKLSDGRLRVGYVSSDFGNHPTSHLMQSIPGMHNPDKFEVFCYALSPDDGTNFRVKVMAEANHFIDLSQIPCNGKAADRIHQDGIHILVNMNGYTKGARNELFALRPAPIQAMWLGYPGTSGALFMDYIITDQETSPAEVAEQYSEKLAYMPHTFFIGDHANMFPHLKKKAVIDFKSNGHIYDNRIVLNGIDLKAFLDSLPDVKIVKMKCPDGGDNADSSNTALNMPVIPMNTIAEAVIEMINRGQIQITINGFSISNGLATTQINNKAATGEEVPRTIIVTTRSQYGLPEDAIVYCNFNQLYKIDPSTLQMWANILKRVPNSVLWLLRFPAVGEPNIQQYAQNMGLPQNRIIFSPVAPKEEHVRRGQLADVCLDTPLCNGHTTGMDVLWAGTPMVTMPGETLASRVAASQLTCLGCLELIAKNRQEYEDIAVKLGTDLEYLKKVRGKVWKQRISSPLFNTKQYTMELERLYLQMWEHYAAGNKPDHMIKPVEVTESA
B2: FLAG-mTET2-N500 (domain or fragment, UniProt Q4JK59 1-500)
chain: T1 sequence
B3: FLAG-mTET2-N1041 (domain or fragment, UniProt Q4JK59 1-1041)
chain: T2 sequence

Assays:
FLAG-UTX [1] = target: FLAG-UTX (UniProt O15550); experiment: co-sedimentation; combined eluates of two large scale FLAG affinity purifications of FLAG-UTX layered over a 20-50% glycerol gradient, 48 h at 35,000 rpm, 4°C; 33 fractions analysed by Western blot
FLAG-UTX [2] = target: FLAG-UTX (UniProt O15550); experiment: co-IP; FLAG IP from nuclear extracts of FLAG-UTX HEK293 cells, Western blot; cells with a FLAG-tag expressing plasmid as IP control
FLAG-mTET2-FL (mouse) = FLAG-mTET2-FL (mouse) (UniProt Q4JK59); experiment: co-IP; HEK293 cells (for TET2 DSBH2 also PROSER1 KO cells) transiently transfected with FLAG-tagged mouse or human TET2 constructs; FLAG IP (FLAG magnetic beads) from total cell lysates, Western blot for endogenous PROSER1 and OGT
FLAG-mTET2-N500 (mouse) = target: T1, FLAG-mTET2-N500 (mouse); experiment: as above
FLAG-mTET2-N1041 (mouse) = target: T2, FLAG-mTET2-N1041 (mouse); experiment: as above
FLAG-PROSER1 = FLAG-PROSER1 (UniProt Q86XN7); experiment: co-IP; FLAG IP from nuclear extracts of FLAG-PROSER1 HEK293 cells, Western blot; cells with a FLAG-tag expressing plasmid as IP control
FLAG-UTX [3] = target: FLAG-UTX (UniProt O15550); experiment: co-IP; FLAG IP from nuclear extracts of FLAG-UTX HEK293 cells, Western blot; cells with a FLAG-tag expressing plasmid as IP control; remark: listed apart in the source
[4] = target: FLAG-HA-NeonGreen-PROSER1 (human (endogenous in HEK293)) (UniProt Q86XN7); experiment: co-IP; FLAG IP from nuclear extracts of FHNG-PROSER1 knock-in HEK293 cells, Western blot; wild-type HEK293 cells as IP control
[5] = target: TET2 (human (endogenous in HEK293)) (UniProt Q6N021); experiment: co-IP; IP of endogenous TET2 (TET2 antibody, Dynabeads Protein G) from nuclear extracts of WT and PROSER1 KO HEK293 cells, Western blot
[6] = target: FLAG-HA-NeonGreen-PROSER1 (human (endogenous in HEK293)) (UniProt Q86XN7); experiment: co-IP; FHNG-PROSER1 knock-in HEK293 cells transiently transfected with FLAG-tagged mouse TET2 constructs; HA IP from total cell lysates, FLAG Western blot

Molecule	binding (FLAG-mTET2-FL (mouse))	binding (FLAG-mTET2-N500 (mouse))	binding (FLAG-mTET2-N1041 (mouse))	binding [6]	also measured
RBBP5 (from UniProt Q15291 1-538)					binding (FLAG-UTX [1]): binds; binding (FLAG-UTX [2]): binds
PROSER1 (from UniProt Q86XN7 1-944)	binds	no binding	no binding		
B1	binds	no binding	no binding		binding (FLAG-PROSER1): binds; binding (FLAG-UTX [3]): binds; binding [4]: binds; binding [5]: binds
B2				no binding	
B3				no binding	
